Experimental data taken from the supplement of paper PMC12632987.
The full ranking holds about 2,300 sequences; the median of “median log2 fold change of GCK-ALFA target abundance (FLAG IP / Myc IP barcode read proportion)” is about 0.095, and the lowest 2% start at about -0.47. The list shows a part of the results.

B1: LC3A_3_1411 (protein)
chain: LEERLAATEALLREAGHSEETLAAFRRLVELLLERGAEEEAERVLELVAEAKDISSEDLLAVLEEVIRALEEEGASPEEAVERLEELLRIARAEQEIEEL
B2: LC3A_102_126 (protein)
chain: KVEELKKKLLEKVRKEVKKLLEEDKSLSEEEKEKILKLAEELARKRLENEEIEIQHGFVDINLEDEALKLREELEKIDPELAKKIEEIIEKGVEEFRKEL
B3: LC3A_free_8_2509 (protein)
chain: IPQSVVDELVAKLDEMEEELVKKLKELGASRLDILEIEILIGSAIAEVYDLSDDSMETLLKSLEDSLKEIIEEAKKISEEVAELAEKHSKEILEALKAAM
B4: LC3A_free_46_2378 (protein)
chain: YKIEIDVYFSAMSKEKAEEAAKEIKEAAEKISKETGVKIKVEVKIITDENGETWLEVKITIEGEDEEKVKAAATKLVDKLEEIAEKHGVSLIISIEEIKE
B5: LC3A_28_809 (protein)
chain: SEAEKIIAAIRAQAEALRDSEDLALIEVDISGTITVEEAEAIMAEVEREAARLAKRRKVAVVINFTEPVSQEVLDTVMDRAEAIEEKYPNVSVIIALPEE
B6: LC3A_17_544 (protein)
chain: MEELKKELEKLLKKLEELVKELEKYDPEKAKKLKKQLEEAKKLIKAGKLREAAELLAKAAREAADAFEKLEPKYGTKASVLAMEASGLELEAIRILLKLE
B7: LC3A_3_1885 (protein)
chain: MEEEIEETIKLLKEAGASEETIKAFKEVIKLLKERGYEEAAKTLIEEVRELLDLPSELLLDFLKEVLETLLTEDLNEEELIEKIKEIARLTRNEGEIEEL
B8: LC3A_28_1316 (protein)
chain: SHIEKQLEKAEKEAEEAAAKGEDILLEVEVTGDTTLEEAEYMMDRLEEIAEKYAPKHKIDIIINVDGDVSQEVIDLIADRAEEIEEKYPNVTVIIALDEN
B9: LC3A_free_46_2387 (protein)
chain: AEGYIDALASPADLETIEKLAEESKKAVEAVAEKYGVKVEVEVEIIKNESGLYELYIRVKIEGDDLETVEKAADAIVEELEAIAAEHGVKLAAIISFEET
B10: LC3A_28_1299 (protein)
chain: MSLEEKLEEAIKKAKEAAAAGEAAVITIEVPGDADEEDIEKIKEALEEIAKILKDIPGSAIIIDIDKDVKEEHITKLMEKGEEIEKKYPNVTVIFALEER
B11: LC3A_free_39_2250 (protein)
chain: SAEELEEALRRAEEVAETLDEETAKAFRELIELVKDNPEAIEAVTEGVEKLKEEGGDVLEFLKEAKELVLKMQKAGKSKEEILKEIKELIEDYLNLIPLD
B12: LC3A_28_1246 (protein)
chain: SAIDEQLAAAKAAAEAAKAAGEEALIELTVTSEATEEDIDKIIAAMEEIAELTKDLPALSIVVNLEKGVKQEHIDKLMEAGEEIEEKYPNVTVIFALEEE
B13: LC3A_free_8_2444 (protein)
chain: STQKLVDEVTELLDEMEERVEEKAKELGLSELDILDLSLLIGSLIAEIISAVDKSIEEIRKIVEEDMEEIIEEARELSEEIAEIVEETKERILELIDEAE
B14: LC3A_28_1279 (protein)
chain: SEIEENIKEAIAKAKEAKAKGEPAVIEIKVPGNATEEEIKKVIEGLKEIAEILKDIPNQAIIIDVDSGVKQEHIDKLADEADEIEKKYPNVTVIIALDED
B15: LC3A_28_1015 (protein)
chain: SELDEQLEAIRKEAEEAIAKGEDVVLTLTIKGSMSDEEVREAMERLREIVLEAAKKGKVDLIIDLDASVSQEKRDIVFESADEIEEEAPNVNVIIALEER
B16: LC3A_45_1975 (protein)
chain: MVKAKVTIWVKREYAEEVKEALLKKMEELEKKYGDKLKVDKEALLKSYEATKNDEFVELEVLIEAETEELLNEAVDAIIDTLDEVGDHKVAMIEIEKLEP
B17: LC3A_3_1406 (protein)
chain: FEEIKKEILKTLKEMGASEEVLEAAEEVLKLLEKRGYLEAAKTLLEEVKELKDASDEILLDFFEDVKKYLEENDDSEEEVVKFIKEEARIAKSANEIEEL
B18: LC3A_61_2042 (protein)
chain: LEERFEEALEELKELGLSEEAIEKLKELYKVDPEEALELAEELVEALKAGVKKEVLEELIEKTYEEVKKAKTQEEKEAILEEAVEEVEDLINLIPLEDLE
B19: LC3A_3_1385 (protein)
chain: MEEEMEKTLERLREAGHSEETIEAARKALEALIEKGYENSAKTFIELLDELIHLPDELLLELFEDVLELIETEDIDEETLTEKIKEIASVYKNESEIEEL
B20: LC3A_45_1939 (protein)
chain: RYRATVDLLVPRELAEEALAATRAAMEELEAERGPAIRVDHAALDASYAASADEDDVYLRVEIVAPTRQDALDAADELVDRLHARLGPRVAAIISLEELP
B21: LC3A_free_39_2211 (protein)
chain: SEEELEELLKKVAEESGLDYEYIRERVEEIRRVAGLSLEQMLELVKAILEAVREGADAEEILEEVLALAKELVAAGKSPEEIAEALLEEVEDFRNLIPLD
B22: LC3A_37_1342 (protein)
chain: MEKDIAVGVANTEEGVELLKKELERLKKERNWETKVIRLPETATETELVEAAEAEMERIAAEIAKKEGMKAKVSSIIEIEKNPKDGKPIVIVYALVTLTP
B23: LC3A_28_1037 (protein)
chain: DELRRRAEEAVKEAEEQAKKGEEAVVTIKVGKLPTEEAKRIVREALERLIKISKKYGNVKISVVIDVDGDQELVDAIIDVAEEAEKKNPNLTVIIALSEE
B24: LC3A_28_643 (protein)
chain: SEIEEQIKEALEKAKEAREKGEPTVIELTLDGNATQEDVEKLIKALKEIAEILESVPGSAIIINVTGNVKQEHIDKIADAAEEIEKKYPNVTVIIALEEK
B25: LC3A_3_1893 (protein)
chain: MEKEVEELVKEMKEKGKSEETIELFKKVIELLKKRGYEEAAKTLIEEMRKLLDAPDEIVLDFLKEVLKVLEEEDLSEEELIEKIKELATLAKNEAEIEEL
B26: LC3A_28_934 (protein)
chain: MTVEERIKKALEEAEKAAKAGEPVVITIKVTSKDTQEEIDKLIKTIKEIAEILKNVKGAAIIVDVDAGVPQERIDKIADTLEEIEKKYPNINAILALDED
B27: LC3A_3_1713 (protein)
chain: MEELLARAREILEAQGRSEETIEAALAALKALLERGYEEAAETLLELLEEMADLSDEILLAFFEDVKEFVETEDASEEEVIEFIKEEARTARSEQEIEEL
B28: LC3A_3_1580 (protein)
chain: MEEFIKEARKRLKEAGFSEEVIEKAEEALKALLERGAEEAAKELLEGLLRLKDAPEEDLLAALEEVKAVAEDESLTKEEILKEVKEILSTLESAKEIIEL
B29: LC3A_free_39_2251 (protein)
chain: SAAELAAALERAEALAATLDPETAAAFRELLELVKDNPEAVRLVTDGVEELRAEGGDVLAFLREATALVRELQAAGKSEEEIVRELRELRDDALNLIPLD
B30: LC3A_132_244 (protein)
chain: MEEKKEKLRKELKKLLEELKKNIDNLEKVKELVKKIEKLLEEAKKELSPEDALEIFEEVADRLDEIAEEAEAAGKEEVARIVENASMYADGLAIEQELKL
B31: LC3A_28_789 (protein)
chain: SALKENADAALEEAKAAAAAGVSTVITIKVTGDATQEDIDYVIEKLEEIAEILKDIKDQAIIIDVDAGVSQEHLDKLAKAAEEIEKKYPNVTVIIALEER
B32: LC3A_127_185 (protein)
chain: KKEELAEKLIELVEEAIENLQKPDFNEEEIKKLLEEAKKLAEELVKLDPSYKPVLEDIEKAIKLFEELLKAPESEKESLREHLIMLLDGIRIEIESLLLK
B33: LC3A_28_697 (protein)
chain: SATDKELEKARAEAEAAIARGEDALITLTIRPDTTMEEVKKILEEIEELARRMSEVGKLYVVVDVESGVKQENLDYIADKLDELEEEIPNLTSIIALDEE
B34: LC3A_3_1812 (protein)
chain: MEERLERALEELREAGASEETLEAVREAVERLLEKGYEEAAETFLELMLELKDLPSELLLELAEEVLELVETSDLSEEEITEKIKEIAATVRHEGEIIEL
B35: LC3A_3_1616 (protein)
chain: IEELLEKAIKTLKEAGKPEEVLELLKETVEKLLEKGYEEAAKTLLEEVIELADLSSEILLDLLKEVLELVETEDLSEEELTEKIKELARIARSEEEIIEL
B36: LC3A_3_1785 (protein)
chain: MEERREELLERLREAGHSEETIEAAREALELLIERGYEEAFETFVEELEELIDLPDEILLDMLEEVLELLKTHDLSEEEVKERIEELAELARNEGEIEEL
B37: LC3A_28_1282 (protein)
chain: SELDESIAAALAAARAAAAAGESAVITIRVPGGATEEEIEKVIEALREIAAILADVPDQAIVIDVDSGVAEEHIDKLADAAEEIEKEHPNVTVIIALDED
B38: LC3A_3_1396 (protein)
chain: FEEIRKEAIAFLKEKGKSEEVIEATEKVLDLLEERGYEEAAKEFLEELKKMKDLSDELLLDFLEDVENYLLENDDNEEEVIKYIKEEATIALNESEIEEL
B39: LC3A_28_636 (protein)
chain: SAIDKEIEKFKAEAKAAAAAGEEAVLTLKVGGDTDEEDVEKIIKTMEEVAEITKDLPRTTIIVDIDGGVKQELIDKLMDAAEEIEKKYPNVTVIFALDEE
B40: LC3A_free_46_2347 (protein)
chain: YKAEIDIDLLAEDEETLKKAVEEIVEAAKKIAKKYNLKVNIEVEIEKLEDGSYYARIKITLEGETKEDVEAAVNELIDEIDKIAKKYNVAAIISYEIIKT
B41: LC3A_28_1319 (protein)
chain: SSVEKELAKAEKQAEEQAAKGEDITITVKVSGKTTLEEAKKLMEGLEKIAEKYAPERKVNIIIDLDGKVKQEVIDLIAKKAEEIEKKYPNVTVIIALDEE
B42: LC3A_free_39_2203 (protein)
chain: SEEEEKEYEEELLKLAAEAGEEALKAAKELLKLVKGNTELVKTILEEVKRAVEEGADVLELLKRLLKLVKELQAQGKSEEEIIEALRAEADVIINLIPIE
B43: LC3A_free_46_2337 (protein)
chain: YRVTVTVDTLAAPKEKIEAFIADLTARAKAIAAELGAEIEIKVEIEKEEDGTYSATVTITITVETEEKAKQAAQKLLDAVDELDEKYGIVGLISSEIEKL

Biological target: MAP1LC3A, Q9H492
Assay: median log2 fold change of GCK-ALFA target abundance (FLAG IP / Myc IP barcode read proportion) (log2 ratio); each designed protein is fused to an ALFA-tag nanobody in HEK293 cells to bring the named protein to FLAG-tagged glucokinase (GCK); Myc marks an untargeted standard; higher = target protein stabilised (more abundant)
Conditions: target protein: 3xFLAG-MCP-GCK-ALFA reporter; HEK293 landing pad (RPLP)
Method in brief: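 Sequencing of reverse-transcribed, amplified circular RNA barcodes from anti-FLAG and anti-Myc immunoprecipitates provided the readout for an ALFA-nanobody-fused binder library recombined into HEK293 landing-pad cells. Those cells were induced with 2 μg mL^−1 doxycycline, transfected with a plasmid expressing a FLAG-tagged target and a Myc-tagged standard, and lysed after 48 h. Target abundance is the per-binder median log2 ratio of FLAG to Myc barcode read proportions. Only barcodes at a proportion of ≥10^−7 in both replicates and binders with ≥3 barcodes per replicate were kept, with a 10^−6 pseudocount added before the two replicates were pooled.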

Row | Binder | median log2 fold change
1 | B1 | 0.212
2 | B2 | 0.0677
3 | B3 | -0.17
4 | B4 | -0.0158
5 | B5 | -0.126
6 | B6 | 0.0592
7 | B7 | 0.165
8 | B8 | 0.195
9 | B9 | 0.0115
10 | B10 | 0.0449
11 | B11 | -0.0415
12 | B12 | 0.137
13 | B13 | -0.324
14 | B14 | -0.0107
15 | B15 | 0.0418
16 | B16 | -0.0771
17 | B17 | 0.215
18 | B18 | 0.206
19 | B19 | 0.082
20 | B20 | -0.0903
21 | B21 | -0.819
22 | B22 | 0.00352

Row | Binder | median log2 fold change
23 | B23 | -0.36
24 | B24 | 0.105
25 | B25 | 0.29
26 | B26 | 0.252
27 | B27 | 0.0461
28 | B28 | 0.227
29 | B29 | 0.276
30 | B30 | -0.406
31 | B31 | 0.14
32 | B32 | 0.176
33 | B33 | 0.0944
34 | B34 | 0.126
35 | B35 | 0.0587
36 | B36 | 0.0238
37 | B37 | -0.339
38 | B38 | 0.0883
39 | B39 | -0.361
40 | B40 | -0.556
41 | B41 | 0.113
42 | B42 | 0.201
43 | B43 | 0.135
